Results are given in words; binding and its absence hold for the method and conditions named. Some entries that bind do so weakly or less than the wild type. Sequences can lack the tags named with a protein.
Columns and labels:
[1] = target: T1, BD-PRR5 (PSEUDO-RESPONSE REGULATOR5, full length, fused to the Gal4 DNA-binding domain) (Arabidopsis thaliana) (UniProt Q6LA42); test: two-hybrid; Gal4 system; baits in pGBKT7 (BD), preys in pGADT7 (AD), cotransformed into yeast AH109; growth on dropout medium lacking Leu, Trp, His and Ade for 4 days
T1 sequence: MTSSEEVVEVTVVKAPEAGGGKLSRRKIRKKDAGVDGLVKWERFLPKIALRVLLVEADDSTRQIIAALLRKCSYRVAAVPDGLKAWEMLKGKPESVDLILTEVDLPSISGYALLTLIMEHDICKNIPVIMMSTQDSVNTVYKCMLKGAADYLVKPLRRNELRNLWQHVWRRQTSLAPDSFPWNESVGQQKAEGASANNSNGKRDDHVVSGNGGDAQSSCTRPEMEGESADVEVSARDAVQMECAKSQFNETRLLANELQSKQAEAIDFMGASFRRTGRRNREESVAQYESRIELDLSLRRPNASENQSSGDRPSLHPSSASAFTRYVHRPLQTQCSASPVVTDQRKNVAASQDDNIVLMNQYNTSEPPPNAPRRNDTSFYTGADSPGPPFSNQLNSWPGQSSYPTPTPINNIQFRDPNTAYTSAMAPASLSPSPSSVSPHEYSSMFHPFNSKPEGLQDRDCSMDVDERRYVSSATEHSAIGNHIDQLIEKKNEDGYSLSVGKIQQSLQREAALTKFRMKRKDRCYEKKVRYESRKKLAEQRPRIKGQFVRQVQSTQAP

[2] = target: T2, BD-PRR7 (PSEUDO-RESPONSE REGULATOR7, full length, fused to the Gal4 DNA-binding domain) (Arabidopsis thaliana) (UniProt Q93WK5); test: as above
T2 sequence: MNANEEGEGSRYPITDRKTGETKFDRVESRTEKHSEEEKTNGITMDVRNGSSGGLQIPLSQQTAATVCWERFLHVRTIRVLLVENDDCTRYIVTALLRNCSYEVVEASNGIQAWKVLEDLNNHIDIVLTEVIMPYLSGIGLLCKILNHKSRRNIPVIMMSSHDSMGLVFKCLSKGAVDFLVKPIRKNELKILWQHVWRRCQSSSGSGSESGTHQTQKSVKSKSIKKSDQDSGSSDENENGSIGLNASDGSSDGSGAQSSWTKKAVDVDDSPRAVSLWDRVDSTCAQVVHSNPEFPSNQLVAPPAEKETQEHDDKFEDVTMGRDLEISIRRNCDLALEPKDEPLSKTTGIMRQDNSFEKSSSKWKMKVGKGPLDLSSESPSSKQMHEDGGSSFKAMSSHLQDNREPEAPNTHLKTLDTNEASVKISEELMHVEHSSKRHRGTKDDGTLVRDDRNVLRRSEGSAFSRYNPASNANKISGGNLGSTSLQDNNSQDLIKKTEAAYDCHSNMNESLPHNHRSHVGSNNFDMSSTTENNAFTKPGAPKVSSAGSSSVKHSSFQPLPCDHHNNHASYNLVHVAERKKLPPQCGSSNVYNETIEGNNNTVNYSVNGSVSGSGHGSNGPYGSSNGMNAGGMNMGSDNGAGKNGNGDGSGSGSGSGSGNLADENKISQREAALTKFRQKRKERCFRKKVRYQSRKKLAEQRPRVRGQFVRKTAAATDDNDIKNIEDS

- binding [1]: binds
- binding [2]: binds
B1: AD-ABI5 (ABSCISIC ACID-…5, full length, fused to the Gal4 activation domain) (protein, UniProt Q9SJN0 1-442)
chain: MVTRETKLTSEREVESSMAQARHNGGGGGENHPFTSLGRQSSIYSLTLDEFQHALCENGKNFGSMNMDEFLVSIWNAEENNNNQQQAAAAAGSHSVPANHNGFNNNNNNGGEGGVGVFSGGSRGNEDANNKRGIANESSLPRQGSLTLPAPLCRKTVDEVWSEIHRGGGSGNGGDSNGRSSSSNGQNNAQNGGETAARQPTFGEMTLEDFLVKAGVVREHPTNPKPNPNPNQNQNPSSVIPAAAQQQLYGVFQGTGDPSFPGQAMGVGDPSGYAKRTGGGGYQQAPPVQAGVCYGGGVGFGAGGQQMGMVGPLSPVSSDGLGHGQVDNIGGQYGVDMGGLRGRKRVVDGPVEKVVERRQRRMIKNRESAARSRARKQAYTVELEAELNQLKEENAQLKHALAELERKRKQQYFESLKSRAQPKLPKSNGRLRTLMRNPSCPL

From article PMC8462813
